Data published in PubChem BioAssay AID588342 (National Center for Advancing Translational Sciences (NCATS), 2011).
Out of some 360,000 compounds screened, about 25,000 (6.9%) were called active. Inconclusive means that the source gave no clear call. Such entries were picked first, then a sample of the others. Calls come from the whole dose curve; as a rule, active = well fitted inhibition curve with a large enough effect; inconclusive = small, poorly fitted or top-dose-only effect; inactive = flat fitted curve, though single readings scatter. Where the call is inconclusive, the potency comes from a doubtful curve fit.

target: Luciferin 4-monooxygenase (Photinus pyralis) (UniProt P08659); assay: qHTS profiling assay for firefly luciferase inhibitor/activator using purifed enzyme and Km concentrations of substrates (counterscreen for miR-21 project); details: purified FLuc, luminescence inhibition; activity change, negative = inhibition: at 57.5 µM (top of the series); note: nearly all actives have a fitted effect of over 55% in size;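 for activity change, negative = inhibition: plate controls were vehicle for no effect and reference inhibitor for full effect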
Method in brief: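 Purified P. pyralis luciferase, 10 nM final, with Km-level 10 uM D-luciferin and 10 uM ATP in 50 mM Tris acetate pH 7.5, 10 mM Mg acetate, 0.01% Tween-20, 0.05% BSA; 6-point qHTS titration about 60 µM downward; luminescence read.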
Potency is the fitted concentration of half-maximal effect; tags give direction and shape of the fitted curve.

UniProt P08659, sequence (P08659 whole entry, looked up): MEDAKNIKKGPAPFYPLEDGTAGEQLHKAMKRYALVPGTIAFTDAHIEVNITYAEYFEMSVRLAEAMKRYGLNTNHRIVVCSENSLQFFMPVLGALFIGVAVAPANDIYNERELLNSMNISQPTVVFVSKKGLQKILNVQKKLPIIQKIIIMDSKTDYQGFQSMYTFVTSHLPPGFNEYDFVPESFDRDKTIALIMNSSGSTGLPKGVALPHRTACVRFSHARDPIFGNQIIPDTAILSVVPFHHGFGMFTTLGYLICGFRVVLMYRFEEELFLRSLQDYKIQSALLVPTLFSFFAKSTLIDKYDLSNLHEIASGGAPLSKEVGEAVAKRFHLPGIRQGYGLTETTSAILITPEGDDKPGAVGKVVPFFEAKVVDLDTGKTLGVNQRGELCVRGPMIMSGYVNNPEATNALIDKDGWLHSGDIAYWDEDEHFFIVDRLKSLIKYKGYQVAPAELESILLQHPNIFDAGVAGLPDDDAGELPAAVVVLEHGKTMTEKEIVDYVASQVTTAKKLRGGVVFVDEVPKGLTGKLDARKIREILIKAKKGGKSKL

Row | SMILES | Potency | activity change, negative = inhibition
1 | CCc1ccc(CNC(=O)C2CCN(S(=O)(=O)N3CCC(C)CC3)CC2)cc1 | inactive | 
2 | CCCCN(C)C(=O)C1CCN(c2ccc(S(=O)(=O)N3CCOCC3)cc2[N+](=O)[O-])CC1 | inactive | 
3 | O=C(C1CCCN(S(=O)(=O)c2cccc3nonc23)C1)N1CCN(c2ccccc2F)CC1 (stereo not given) | inactive | 
4 | O=C(O)c1nccnc1C(=O)Nc1ccccc1-c1ccccc1 | inactive | 
5 | CCOC(=O)Cc1csc(NC(=O)c2ccc(N3CCOCC3)cc2[N+](=O)[O-])n1 | inconclusive: 23.9 µM [inhibitor, single point] | 
6 | Cc1ccc(CCNC(=O)c2sc3nc4n(c(=O)c3c2C)CCC4)cc1 | inactive | 
7 | O=C(CCNC(=O)c1ccccc1Cl)Nc1cccc(S(=O)(=O)N2CCCC2)c1 | inactive | 
8 | Cc1ncsc1CCOC(=O)c1ccccc1 | inconclusive: 26.9 µM [inhibitor, single point] | 
9 | Oc1c(C(c2ccc(F)cc2)N2CCCC2)sc2nc(-c3ccco3)nn12 (stereo not given) | inconclusive: 19 µM [inhibitor, partial curve, poor fit] | 
10 | O=C(CSCc1ccccc1)N/N=C/c1ccc(OCC(=O)N2CCCCC2)cc1 | inconclusive: 37.9 µM [inhibitor, partial curve, poor fit] | 
11 | FCCCOc1ccc(-c2nccc(-c3ccc(F)cc3)n2)cc1 | active: 23.9 µM | 
12 | O=C1CC(=Nc2ccccc2)NN1c1ccccc1 | active: 16.9 µM | 
13 | COc1ccccc1NC(=O)CSc1nc2ccccc2c(=O)n1CC1CCCO1 (stereo not given) | inactive | 
14 | COC(=O)Cc1c(C)c2ccc(OC(=O)c3ccccc3)cc2oc1=O | active: 15.1 µM | 
15 | O=C(O)c1ccc2c(=O)n3cc(C(=O)c4ccccc4O)cc(Cl)c3nc2c1 | inactive | 
16 | COc1ccc(C)cc1NC(=O)c1ccc(OC(F)F)cc1 | inconclusive: 26.9 µM [inhibitor, single point] | 
17 | CCC(=O)OCC(=O)N=c1sccn1Cc1ccc(C)cc1 | inconclusive: 37.9 µM [inhibitor, partial curve, poor fit] | 
18 | COc1ccc(C(=O)Nc2ccc(C(=O)Nc3cccc(C)c3)cc2)cc1 | inactive | 
19 | CC(=O)N1CCN(S(=O)(=O)c2cccc(C(=O)N(Cc3ccccc3)c3ccc(C)cc3)c2)CC1 | inconclusive: 37.9 µM [inhibitor, partial curve, poor fit] | 
20 | O=C(CSc1nnc(-c2ccc(O)cc2)o1)Nc1ccc2c(c1)OCCO2 | inconclusive: 7.57 µM [inhibitor, partial curve, poor fit] | 
21 | Cc1ccc(NC(=O)CN2C(=O)CSc3ccc(S(=O)(=O)N(C)C)cc32)cc1C | inconclusive: 15.1 µM [inhibitor, partial curve, poor fit] | 
22 | Cc1ccccc1Oc1ncnc2oc(-c3ccccc3)cc12 | inconclusive: 26.9 µM [inhibitor, single point] | 
23 | CCCCOc1ccc(-c2ncc(N)cn2)cc1 | active: 6.75 µM | 
24 | CCOCCCNC(=O)c1cc2cc3cc(OC)ccc3nc2o1 | inconclusive: 37.9 µM [inhibitor, single point] | 
25 | O=C(N/N=C/c1ccc2cccc(OCc3ccccc3)c2n1)c1ccc(Cl)cc1 | active: 6.75 µM | 

Row | SMILES | Potency | activity change, negative = inhibition
26 | Cc1nnc(NC(=O)c2cc(-c3ccncc3)nc3c(C)cccc23)s1 | inconclusive: 21.3 µM [inhibitor, partial curve] | 
27 | CC(=O)Nc1ccc(C(=O)Nc2nc(-c3cccnc3)cs2)cc1 | inconclusive: 10.7 µM [inhibitor, partial curve] | 
28 | COc1ccc(CNC(=O)Nc2ccc(C)cc2)cc1 |  | inactive: -1.77% [at 2.3 µM]
29 | Cc1cccc(NC(=O)c2cccc(NC(=O)Cc3cccs3)c2)c1 | inconclusive: 26.9 µM [inhibitor, single point] | 
30 | O=[N+]([O-])c1cc(Cl)cc(/C=N/Nc2nc3ccccc3s2)c1O | inconclusive: 23.9 µM [inhibitor, partial curve] | 
31 | O=C(Nc1ncc2c(n1)-c1ccccc1OC2)c1ccc(Cl)cc1 | inconclusive: 23.9 µM [inhibitor, partial curve, poor fit] | 
32 | Cc1cc(NC(=O)CSc2nnc(-c3ccc([N+](=O)[O-])cc3)o2)no1 | inactive | 
33 | CCOC(=O)c1[nH]c2ccc(OC)cc2c1NC(=O)c1cccc(OC)c1 | inactive | 
34 | CC1(C)CC(=O)c2cc(C(=O)Nc3ccc(Cl)cc3)c(=O)[nH]c2C1 | inactive | 
35 | Cc1ccc(N=Cc2cc(Br)cc(Cl)c2O)cc1 | inconclusive: 23.9 µM [inhibitor, partial curve] | 
36 | CC1CC(C)CN(C(=O)c2ccc(-c3ccc([N+](=O)[O-])cc3)o2)C1 (stereo not given) | inactive | 
37 | Cc1ccc(-n2cc(C(=O)c3ccc4ccccc4c3O)cn2)cc1 | inconclusive: 23.9 µM [inhibitor, partial curve, poor fit] | 
38 | O=C(/C=C/c1ccc(Cl)cc1)N1CCN(Cc2ccccc2)CC1 | inconclusive: 37.9 µM [inhibitor, single point] | 
39 | COC(=O)c1c(NC(=O)C2c3ccccc3Oc3ccccc32)sc2c1CCC(C)C2 (stereo not given) | inactive | 
40 | c1cncc(CSc2nnc3ccc(-c4cccs4)nn23)c1 | inactive | 
41 | Cc1ccc(C(=O)Nc2ccc(C)c(S(=O)(=O)Nc3ccccc3Cl)c2)s1 | inconclusive: 23.9 µM [inhibitor, single point] | 
42 | COc1ccccc1CCNC(=O)Cc1c(C)c2c(O)cc(C)cc2oc1=O | inactive | 
43 | COc1ccc(NC(=O)CSCC(=O)NC2(C)CCS(=O)(=O)C2)cc1 (stereo not given) | inactive | 
44 | CC(=O)Oc1ccc2c(=O)c(-c3ccccc3)coc2c1 | active: 13.5 µM | 
45 | Cc1ccccc1OCC(=O)N1CCc2ccccc2C1 | inconclusive: 37.9 µM [inhibitor, partial curve, poor fit] | 
46 | COc1ccc(-c2cc3ccc(OCC(=O)NCC4CCC(C(=O)O)CC4)cc3oc2=O)cc1 (stereo not given) | active: 0.953 µM | 
47 | c1csc(-c2nc(-c3ccc(-c4ccon4)s3)no2)c1 | active: 0.601 µM | 
48 | O=C(c1cc(COc2ccc(F)c(F)c2)on1)N1CCOCC1 | inconclusive: 30.1 µM [inhibitor, single point] | 
49 | O=S(=O)(Nc1ccc2nc(N3CCOCC3)sc2c1)c1ccc(Cl)cc1 | inactive | 
50 | CCOC(=O)c1cnn2c(C)cc(-c3ccccc3)nc12 | active: 19 µM | 

Row | SMILES | Potency | activity change, negative = inhibition
51 | O=C(Nc1cccc(F)c1)Nc1ccnn1C1CCN(C(=O)c2ccccn2)CC1 | inconclusive: 37.9 µM [inhibitor, partial curve, poor fit] | 
52 | COc1ccc(Cn2c(=O)c3oc4ccccc4c3n(Cc3ccccc3)c2=O)cc1 | inactive | 
53 | Cc1ccc(OCCSc2nc(-c3cccs3)nc3cc(=O)[nH]n23)cc1Cl | inconclusive: 15.1 µM [inhibitor, partial curve] | 
54 | O=C(CSc1c2c(nc3ccccc13)CCC2)Nc1ccc(F)cc1F | inactive | 
55 | COc1cc(NC(=O)c2ccccc2F)ccc1NC(=O)c1ccccc1Cl | inconclusive: 10.7 µM [inhibitor, partial curve] | 
56 | O=C(Nc1ccc2nc(-c3cccnc3)[nH]c2c1)c1ccco1 | inconclusive: 23.9 µM [inhibitor, single point] | 
57 | Cc1ccc2nc(C3CCCN(C(=S)Nc4ccccc4C)C3)[nH]c2c1 (stereo not given) | inconclusive: 10.7 µM [inhibitor, partial curve] | 
58 | CCOc1ccc(NC(=O)COC(=O)c2cc(S(=O)(=O)N3CCCC3)ccc2C)cc1 | inconclusive: 21.3 µM [inhibitor, single point] | 
59 | Cc1cccc(NC(=O)CSc2nc3c(oc4ccccc43)c(=O)n2-c2ccccc2)c1C | inactive | 
60 | Cc1nc(N)sc1C(=O)N/N=C/c1ccc([N+](=O)[O-])cc1 | inactive | 
61 | CCCCC(CCC(=O)Nc1cc([N+](=O)[O-])ccc1O)C(=O)O (stereo not given) | inconclusive: 21.3 µM [inhibitor, single point] | 
62 | CC(C)(C)OC(=O)N1CCC(CC2CC(c3ccc(Cl)cc3)=NO2)(C(=O)NCC2CCCCC2)CC1 (stereo not given) | inactive | 
63 | CN(CC(=O)Nc1cccc(F)c1)CC(=O)Nc1cccc([N+](=O)[O-])c1 | inactive | 
64 | O=C1NC(=S)N/C1=C\c1ccc(N2CCOCC2)cc1 | active: 21.3 µM | 
65 | Cc1cc(F)ccc1NC(=O)CCS(=O)(=O)c1cccc2nsnc12 | inactive | 
66 | COc1cc(C)c(S(=O)(=O)Nc2cccc(-c3ccc(N4CCCC4)nn3)c2)cc1C | inconclusive: 7.57 µM [inhibitor, partial curve] | 
67 | C/C(=N\NC(=O)c1ccc(O)cc1)c1ccc2c(c1)OCCO2 | active: 13.5 µM | 
68 | CCc1ccc(OCC(=O)NNC(=O)c2nn(CC)c(=O)c3ccccc23)cc1 | inconclusive: 16.9 µM [inhibitor, partial curve, poor fit] | 
69 | O=C(O)c1ccccc1C(=O)c1cccs1 | inactive | 
70 | CC(=O)Nc1cccc(C(=O)N/N=C/c2ccc(F)cc2)c1 | active: 6.01 µM | 
71 | O=C(Nc1ccc(Cl)cc1)c1ccc(-c2ccccn2)s1 | inconclusive: 1.9 µM [inhibitor, full curve] | 
72 | O=C(OCC(=O)N1CCc2ccccc21)C1=COCCO1 | inconclusive: 37.9 µM [inhibitor, single point] | 
73 | COc1ccc(OC)c(NC(=O)CCc2nc(-c3ccc(C)cc3)no2)c1 | inconclusive: 37.9 µM [inhibitor, partial curve, poor fit] | 
74 | CCN(C(=O)COC(=O)c1cccc(C)c1[N+](=O)[O-])c1c(N)n(Cc2ccccc2)c(=O)[nH]c1=O | inactive | 
75 | Cc1ccccc1-c1nnc(-c2ccc(Br)cc2)o1 | inconclusive: 4.78 µM [inhibitor, partial curve] | 
